Test results taken from publication PMC4336329 (PLoS ONE, 2015).
The whole screen tested about 310,000 compounds, of which about 14,000 (4.5%) showed an effect of 50% or more. Effects have a minus sign here. The list shows a part of the results.

biological target: human ether-à-go-go-related gene (hERG) potassium channel (human, UniProt Q12809); test: primary screen, population patch clamp on CHO cells stably expressing hERG
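Further: peak tail current of the secondary pulse compared with the same well before compound.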

Chain of human ether-à-go-go-related gene (hERG) potassium channel (Q12809 whole entry, looked up): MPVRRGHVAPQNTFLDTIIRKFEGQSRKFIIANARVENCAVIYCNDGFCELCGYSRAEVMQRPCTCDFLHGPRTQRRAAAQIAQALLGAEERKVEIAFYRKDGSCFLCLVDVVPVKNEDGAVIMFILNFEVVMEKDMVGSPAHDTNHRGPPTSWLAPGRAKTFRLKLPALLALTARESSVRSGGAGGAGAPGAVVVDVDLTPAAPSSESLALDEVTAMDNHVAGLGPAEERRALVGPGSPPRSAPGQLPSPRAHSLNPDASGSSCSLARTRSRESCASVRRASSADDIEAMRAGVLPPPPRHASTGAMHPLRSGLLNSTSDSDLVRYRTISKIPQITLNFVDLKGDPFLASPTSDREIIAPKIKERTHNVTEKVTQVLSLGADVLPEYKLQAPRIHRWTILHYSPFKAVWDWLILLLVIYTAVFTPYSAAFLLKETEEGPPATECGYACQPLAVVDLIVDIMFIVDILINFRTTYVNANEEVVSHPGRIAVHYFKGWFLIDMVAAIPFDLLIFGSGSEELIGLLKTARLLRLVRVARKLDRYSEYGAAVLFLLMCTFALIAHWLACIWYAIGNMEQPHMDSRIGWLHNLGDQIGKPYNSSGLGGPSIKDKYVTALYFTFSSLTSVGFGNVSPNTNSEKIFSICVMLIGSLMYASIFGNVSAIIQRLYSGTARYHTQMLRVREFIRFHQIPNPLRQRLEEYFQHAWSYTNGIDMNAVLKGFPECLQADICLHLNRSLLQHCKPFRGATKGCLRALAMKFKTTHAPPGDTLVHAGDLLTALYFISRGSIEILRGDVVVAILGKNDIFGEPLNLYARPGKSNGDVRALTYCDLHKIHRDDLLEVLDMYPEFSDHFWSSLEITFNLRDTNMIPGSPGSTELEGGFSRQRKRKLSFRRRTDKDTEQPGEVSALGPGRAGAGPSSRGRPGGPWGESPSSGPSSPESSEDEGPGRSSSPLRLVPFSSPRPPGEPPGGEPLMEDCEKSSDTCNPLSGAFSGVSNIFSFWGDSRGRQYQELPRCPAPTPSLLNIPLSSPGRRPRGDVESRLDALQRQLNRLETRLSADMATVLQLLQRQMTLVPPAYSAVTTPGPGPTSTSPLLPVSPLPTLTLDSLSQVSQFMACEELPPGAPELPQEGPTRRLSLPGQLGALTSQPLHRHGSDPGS

Row | Compound | hERG current change (%, negative = inhibition) at 10uM [%]
1 | C[C@H](NC(=O)c1nc[nH]c1C(=O)N1CCN(c2ccccc2)CC1)C(=O)OCc1ccccc1 | -2.19
2 | Brc1cccc(-c2nnc3sc(CNCc4ccco4)cn23)c1 | -60.3
3 | COc1ccc(C(CNC(=O)c2cc3c(s2)CCC(C)C3)N2CCCC2)cc1 (stereo not drawn) | -57.7
4 | COc1ccc(NC(=O)c2cc(-c3ccccc3)nc3c2cnn3C(C)C)c(OC)c1 | 5.18
5 | COc1ccc(CC(C(=O)Nc2ccc(OC)cc2)c2nn[nH]n2)cc1 (stereo not drawn) | 20.2
6 | O=C(O)C1C2C=CC(C3CC23)C1C(=O)NCCc1ccccc1 (stereo not drawn) | 3.94
7 | COc1ccccc1C(=O)Nc1ccnn1C1CCN(Cc2ccccc2OCCO)CC1 | -78.7
8 | CCc1ccccc1NC(=O)CSc1ncn[nH]1 | 9.18
9 | CC(=O)Nc1ccc(S(=O)(=O)NCC2CCC(C(=O)NCCCN3CCCC3=O)CC2)cc1 (stereo not drawn) | -5.63
10 | Cc1cccc2c1NC(=O)C2(O)N1CCCC(C)C1 (stereo not drawn) | 15.9
11 | Cc1ccc(CNS(=O)(=O)c2ccc(C)s2)cc1 | -2.79
12 | COC(=O)c1ccc(COC(=O)C2CCN(S(=O)(=O)c3c(Cl)cccc3Cl)CC2)o1 | -7.62
13 | COc1ccc(CCNC(=O)C2CC3Cn4c(nc5ccccc54)C3N2C)cc1 (stereo not drawn) | -8.64
14 | O=C(N/N=C/c1ccc(Cl)cc1Cl)c1ccncc1 | -7.34
15 | COCCN(CC(=O)Nc1ccccc1C(F)(F)F)C(=O)c1ccc(-n2cccn2)cc1 | -18.8
16 | CC1CCN(C(=O)Cn2nnc(-c3cccs3)n2)CC1 | -0.924
17 | Cc1ccccc1NS(=O)(=O)c1ccc(C(=O)NN2CCCCC2)cc1 | 15.3
18 | Cl.O=C(CSC1=NCCN1)NC12CC3CC(CC(C3)C1)C2 | -21.1
19 | C=CCn1c(C)cc(C(=O)COc2ncnc3sccc23)c1C | -6.15
20 | COc1ccc(CNC(=O)CCS(=O)(=O)Cc2ccc(C)cc2)c(OC)c1 | -20.6
21 | O=P(O)(C(O)c1ccccc1)C(O)c1ccccc1 (stereo not drawn) | 0.999
22 | Cc1cc2cc(CNC(=O)c3ccc(S(=O)(=O)N4CCOCC4)cc3)ccc2[nH]1 | 6.35
23 | CC(NC(=O)Nc1ccccc1)C(c1cccs1)N1CCOCC1 (stereo not drawn) | -3.94

Row | Compound | hERG current change (%, negative = inhibition) at 10uM [%]
24 | CC1CN(C(=O)c2cccc(S(=O)(=O)NCc3ccccc3)c2)CC(C)O1 (stereo not drawn) | -6.85
25 | COc1cccc(NC(=O)CCN2C(=O)c3ccc([N+](=O)[O-])cc3C2=O)c1 | -6.47
26 | COc1ccccc1C(=O)N/C(=C/c1ccc2c(c1)OCO2)C(=O)Nc1cccc(C(=O)O)c1 | -4.02
27 | Cc1cc(-c2cccc(Br)c2)c(C#N)c(N)n1 | 18.1
28 | COc1ccc(OC)c(NC(=O)C2C3C=CC(C3)C2C(=O)NCc2ccccn2)c1 (stereo not drawn) | 6.15
29 | COc1ccc(CC(=O)NCc2n[nH]c(=S)n2C)cc1 | 21.5
30 | COc1ccc(NC(=O)CN(C)C(=O)c2ccc(N3CCCC3)c([N+](=O)[O-])c2)cc1 | -54
31 | COc1cccc(NC(=O)COC(=O)CC(NC(N)=O)c2ccc(Cl)cc2)c1 (stereo not drawn) | -2.18
32 | CCOc1ccc(Oc2cc(C)nc(SC)n2)nn1 | 10.5
33 | CC(=O)c1ccc(N2CCN(CC(=O)Nc3ccc4c(c3)OCCO4)CC2)cc1 | 5.06
34 | COc1ccc(C(N)=O)c(OCC(=O)Nc2cc(C)on2)c1 | 3.75
35 | CC(C)(C)NC(=O)Cn1c(=O)c(=O)n(Cc2ccccc2)c2ccc(Cl)cc21 | -0.233
36 | CC(=O)c1sc(NC(=O)c2cc(S(=O)(=O)N3CCOCC3)ccc2F)nc1C | -1.54
37 | Cc1nc(N)[nH]c(=O)c1Oc1cccc(C(F)(F)F)c1 | 6.79
38 | COc1ccc(Cl)cc1NC(=O)CN(C)C(=O)CSc1ccc2c(c1)OCCO2 | -19.5
39 | O=C(OCCCOC(=O)c1ccc(Br)o1)c1ccc(Br)o1 | -43.2
40 | O=S(=O)(NCCN1CCCC1)c1ccc(Cl)cc1 | 10.3
41 | COc1ccccc1OCC(=O)N/N=C1/SCC(=O)N1Cc1ccccc1 | -18.6
42 | COc1ccc2c(C(=O)CN3CCN(c4ccccc4)CC3)c[nH]c2c1 | -10.3
43 | COc1ccc(CCNC(=O)C2CCCN2C(=O)Nc2ccc(C)cc2)cc1OC (stereo not drawn) | 19.2
44 | O=C(/C=C/Nc1ccc(F)cc1)c1cccs1 | 7.59
45 | Nc1ccc2nc3c(=O)n(CCc4ccccc4)c(=O)[nH]c3nc2c1 | -12.4
46 | COC(=O)c1cccc(CSC(=S)N2CCCC2)c1 | -28.3

Row | Compound | hERG current change (%, negative = inhibition) at 10uM [%]
47 | O=C(COc1ccc([N+](=O)[O-])cc1)NCCc1nc2ccccc2[nH]1 | -56.7
48 | Cc1ccc(NCCC(=O)c2ccc(Cl)c(Cl)c2)cc1 | -0.536
49 | CC(C)[N+]12CCC(CC1)C(C(O)(c1ccccc1)c1ccccc1)C2.[I-] (stereo not drawn) | 16.9
50 | CCOc1nc(C)ccc1-c1noc(-c2ccccn2)n1 | 6.02
51 | Cc1ccc(SCC(=O)NNC(=O)C2CCCCC2)cc1 | -3.61
52 | Cn1c(=O)c2cc(S(=O)(=O)N3CCC(c4ccccc4)CC3)ccc2n(C)c1=O | -2.67
53 | Cc1ccc(-n2c(C)nn(CC#N)c2=O)cc1 | 18.7
54 | O=C(COC(=O)CCC1CCCC1)NCc1ccc(Cl)cc1 | 5.85
55 | Cc1c(NC(=O)C2CCCO2)cccc1[N+](=O)[O-] (stereo not drawn) | 9.31
56 | COc1cccc(CC(=O)OCC(=O)NC2(C#N)CCCCC2)c1 | 16.5
57 | CC(C)(C)CN1CCNC(=O)C1CC(=O)NC1Cc2ccccc2C1 (stereo not drawn) | 4.08
58 | O=c1cnnc(Nc2cccc(F)c2)[nH]1 | 25.3
59 | O=Cc1ccc(Oc2ccc(F)cc2)nc1 | 11.1
60 | CCOc1cc(S(=O)(=O)NCCc2ccc(OC)c(OC)c2)c(OCC)cc1-n1cnnn1 | 2.67
61 | Cc1ccc2nc(-c3ccc(NC(=O)CN4C(=O)c5ccccc5C4=O)cc3)sc2c1 | -0.222
62 | O=C(c1ccccc1F)N1CCN(c2ccc([N+](=O)[O-])c3cccnc23)CC1 | -65.5
63 | CCC[C@H](CN[C@@H](CNC)[C@H](C)O)NCCc1ccc(OC)cc1 | 2.16
64 | O=C(CCN1C(=O)c2cccc3cccc(c23)C1=O)NC1CCS(=O)(=O)C1 (stereo not drawn) | 2.16
65 | CCC(=O)N(Cc1cc2cc(OC)ccc2[nH]c1=O)c1cccc(C)c1 | -20.6
66 | O=[N+]([O-])c1cccc(-n2nnnc2CN2CCCCCC2)c1 | -28.5
67 | Cc1nn(Cc2ccccc2)c2c1C(c1cccc(Cl)c1)C(C#N)=C(N)O2 (stereo not drawn) | 0.533
68 | COc1ccc(S(=O)(=O)NCc2nc3nc(C)cc(C)n3n2)cc1OC | 5.21
69 | C=CCc1cccc(C2Nc3ccccc3C(=O)N2O)c1O (stereo not drawn) | 7.52

Row | Compound | hERG current change (%, negative = inhibition) at 10uM [%]
70 | S=c1nc[nH]c2c1ncn2C1CCCC1 | 19.6
71 | C=CCNCCOc1cccc(Br)c1 | -4.37
72 | CCOC(=O)c1c(NC(=O)CSc2nnc(-c3cccnc3)o2)sc(C(C)=O)c1C | -46.1
73 | O=C(CSc1nnc(Cc2ccccc2)n1Cc1ccco1)NC1CCCC1 | -4.94
74 | Cc1[nH]nc2c1C(c1ccc(F)cc1)C(C#N)=C(N)O2 (stereo not drawn) | -1.43
75 | O=C(Nc1nc2cc3c(cc2s1)OCCO3)c1cccs1 | 7.38
76 | CCOc1cc(/C=C2\SC(=Nc3ccc(CC)cc3)NC2=O)ccc1OCC(=O)O | 19.9
77 | COc1ccccc1NC(=O)Nc1sccc1-c1nc2ccccc2s1 | 30.1
78 | c1ccc(-c2csc3ncnc(N4CCOCC4)c23)cc1 | -13.9
79 | COc1ccc(/C=C/C(=O)NCc2c(C)nn(C)c2C)cc1COc1ccc(Br)cc1 | -0.998
80 | C[C@@H](C(=O)NCc1ccccn1)[C@H]1C[C@]1(C)[C@H](NC(=O)OCc1ccccc1)c1ccccc1 | -8.22
81 | Cn1c(Cn2c(=O)sc3ccccc32)nnc1SCC(=O)NCc1ccccc1Cl | -12.9
82 | C[n+]1c2ccccc2nc2ccc(NCCO)cc21.[O-][Cl+3]([O-])([O-])[O-] | 21.7
83 | CC(C)CC(=O)Nc1nnc(SCC(=O)Nc2nccs2)s1 | 7.61
84 | CCOC(=O)c1[nH]cnc1C(=O)NC(C)C | -4.31
85 | O=C(NCNC(=O)c1ccccc1)c1ccccc1 | 19.8
86 | CCOc1ccc(S(=O)(=O)Nc2ccccc2C(=O)Nc2ccccc2N2CCOCC2)cc1 | -9.11
87 | COc1ccc(NC(=O)CC2SC(N3CCOCC3)=NC2=O)cc1OC (stereo not drawn) | 9.88
88 | CCN=C1SC(C(N)=O)CC(=O)N1CC (stereo not drawn) | 12.9
89 | CC12CCC(=O)N1C(C(=O)N1CCN(S(=O)(=O)c3ccccc3F)CC1)CS2 (stereo not drawn) | -30.1
90 | Cc1ccc(C(=O)C(C)Oc2cccc(NC(=O)c3ccco3)c2)cc1 (stereo not drawn) | -13.4
